Measurements from paper PMC4336329 (PLoS ONE, 2015).
Out of some 310,000 compounds screened, about 2,200 (0.71%) showed an effect of 50% or more. Effects have a minus sign here. Some of the results follow.

Target: human ether-à-go-go-related gene (hERG) potassium channel (human, UniProt Q12809)
Test: primary screen, population patch clamp on CHO cells stably expressing hERG

Sequence of human ether-à-go-go-related gene (hERG) potassium channel (Q12809 whole entry, looked up): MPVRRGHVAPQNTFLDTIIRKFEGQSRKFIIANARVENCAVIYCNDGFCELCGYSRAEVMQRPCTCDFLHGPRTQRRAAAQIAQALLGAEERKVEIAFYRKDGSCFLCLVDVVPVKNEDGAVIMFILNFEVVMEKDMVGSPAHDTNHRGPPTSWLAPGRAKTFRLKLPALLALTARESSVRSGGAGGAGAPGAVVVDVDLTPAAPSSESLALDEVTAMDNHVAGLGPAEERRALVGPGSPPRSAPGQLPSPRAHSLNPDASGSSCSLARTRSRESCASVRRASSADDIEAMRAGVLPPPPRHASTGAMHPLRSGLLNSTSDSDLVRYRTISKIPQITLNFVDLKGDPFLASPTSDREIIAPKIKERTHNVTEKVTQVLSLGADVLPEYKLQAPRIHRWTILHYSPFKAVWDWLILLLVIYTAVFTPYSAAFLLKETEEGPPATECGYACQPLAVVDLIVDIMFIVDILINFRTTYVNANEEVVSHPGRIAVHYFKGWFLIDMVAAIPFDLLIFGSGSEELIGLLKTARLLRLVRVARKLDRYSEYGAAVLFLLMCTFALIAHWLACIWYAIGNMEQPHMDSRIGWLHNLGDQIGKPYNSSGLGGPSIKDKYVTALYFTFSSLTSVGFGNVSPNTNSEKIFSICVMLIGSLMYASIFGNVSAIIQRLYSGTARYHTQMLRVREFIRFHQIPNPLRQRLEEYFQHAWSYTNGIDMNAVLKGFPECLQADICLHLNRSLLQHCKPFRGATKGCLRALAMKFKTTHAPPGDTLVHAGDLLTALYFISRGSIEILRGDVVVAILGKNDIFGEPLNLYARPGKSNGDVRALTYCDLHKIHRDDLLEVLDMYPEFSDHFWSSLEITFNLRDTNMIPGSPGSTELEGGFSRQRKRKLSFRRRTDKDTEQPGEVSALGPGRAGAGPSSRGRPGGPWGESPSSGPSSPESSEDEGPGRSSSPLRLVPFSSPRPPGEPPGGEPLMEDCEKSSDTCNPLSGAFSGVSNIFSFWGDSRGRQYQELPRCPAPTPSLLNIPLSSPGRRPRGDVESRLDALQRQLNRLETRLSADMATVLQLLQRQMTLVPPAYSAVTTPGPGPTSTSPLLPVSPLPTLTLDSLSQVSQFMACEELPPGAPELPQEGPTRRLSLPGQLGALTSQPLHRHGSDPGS

First: CCOC(C(=O)OCC(O)CN(CC)CC)(c1ccccc1)c1ccccc1.Cl (centres unmarked)
Second: COc1ccc(CNCC(O)(c2ccccc2)c2ccccc2)cc1OC
The “hERG current change (%, negative = inhibition) at 1uM” value of the first is higher: 7.76% for the first, -8.24% for the second.

Compared with `CC(C)(C)c1nn(-c2ccccc2)c2[nH]c(=O)c(CNCc3ccco3)cc12`, `CCN(CC)c1nc(-c2ccccc2)nc2ccccc12.Cl` is higher in “hERG current change (%, negative = inhibition) at 1uM” value: 3.85% for the first, 5.38% for the second.

Going from `COc1ccc(-c2noc(C3CCCN(C(=O)Nc4ccccc4F)C3)n2)cc1` (centres unmarked) to `O=C(Nc1ccc(Oc2cccnc2)cc1)C1CCCCN1Cc1ccc(CO)o1` (centres unmarked), the “hERG current change (%, negative = inhibition) at 1uM” value falls from 16.6% to 2.32%.

Compared with `CC(=O)NC1CC2CCCC(C1)N2` (centres unmarked), `CSc1ncccc1C(=O)NC1CCCCCCC1` is lower in “hERG current change (%, negative = inhibition) at 1uM” value: 14% for the first, 10.2% for the second.

Going from `COc1ccc2c(c1)[nH]c1c(=O)n(CCCn3ccnc3)cnc12` to `Cn1c(=O)n(CCCOc2ccc(Br)cc2)c2ccccc21`, the “hERG current change (%, negative = inhibition) at 1uM” value rises from -6.25% to 17.1%.

First: N#Cc1ccccc1NS(=O)(=O)c1cc2c3c(c1)CCC(=O)N3CCC2
Second: Br.N=C1c2ccccc2CN1NC(=O)c1cccc(S(=O)(=O)N2CCCC2)c1
The “hERG current change (%, negative = inhibition) at 1uM” value of the first is higher: 14.2% for the first, 6.6% for the second.

First: CN(CC(=O)Nc1ccc(N2CCOCC2)cc1)C(=O)CSc1ccccc1F
Second: O=C(CSc1n[nH]c(-c2cccnc2)n1)Nc1ccc(Br)cc1
The “hERG current change (%, negative = inhibition) at 1uM” value of the first is higher: 12.9% for the first, 9.74% for the second.

Going from `FC(F)(F)c1cnc(Oc2ccccc2-c2nnc(-c3ccc(Cl)cc3)o2)c(Cl)c1` to `O=C(c1ccc(Cl)cc1)C1CCCN(Cc2cccc3ncccc23)C1` (centres unmarked), the “hERG current change (%, negative = inhibition) at 1uM” value falls from 2.47% to -8.07%.

First: O=C(NC1CCCC1)C1CCN(c2cnccn2)CC1
Second: COc1ccc(OC)c2c(C)cc(N3CCCCCC3)nc12
The “hERG current change (%, negative = inhibition) at 1uM” value of the first is higher: 20.6% for the first, 9.03% for the second.

First: COc1ccc(C(C)=O)cc1Cn1nc(C)c([N+](=O)[O-])c1C
Second: CCN(CC)C(=O)CN(c1cccc([N+](=O)[O-])c1)S(=O)(=O)c1ccccc1
The “hERG current change (%, negative = inhibition) at 1uM” value of the first is higher: 15.9% for the first, -2.93% for the second.

Going from `Cc1ccc(C(=O)NCCNC(=O)c2cccnc2)cc1` to `O=C(O)c1cccnc1Sc1ccc(Br)cc1`, the “hERG current change (%, negative = inhibition) at 1uM” value falls from 12.9% to 12.8%.

Compared with `O=C(CCn1cnc2ccccc2c1=O)Nc1cccc(Cl)c1Cl`, `COc1ccc(NC(=O)CSc2nc(N)c3cc4c(nc3n2)CCCC4)cc1` is lower in “hERG current change (%, negative = inhibition) at 1uM” value: 18.2% for the first, 5.92% for the second.

First: Brc1ccc(C2=CC(c3ccco3)n3ncnc3N2)cc1 (centres unmarked)
Second: O=C(NCCCCCCCCCNC(=O)C(F)(F)F)C(F)(F)F
The “hERG current change (%, negative = inhibition) at 1uM” value of the first is higher: 8.63% for the first, -4.14% for the second.
